These results are taken from the supplement of paper PMC10126150.

For the data set, the system named is ATP. Briefly: switch fluorescence ratio, 500 uM ATP over buffer (Cy3 cluster intensity, sum of 5 cycles each) (fold (ratio)); higher = stronger signal-on switching upon ATP binding; sequences stand for … in TCGTCGGCAGCGTCAGATGTGTATAAGAGACAGTTTTTTTTTTTTTTTTTTTTTTTTT…TC. As to conditions: aptamer strand: ATP DNA aptamer (quencher-CACCTGGGGGAGTATTGCGGAGGAAGG + anchor), 100 nM annealed; ATP concentration: 500 uM; one replicate. The gist of the method: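 The quencher-labelled ATP aptamer, at 100 nM, was annealed to Cy3-labelled switching-strand clusters on a modified Illumina MiSeq flow-cell. The clusters were imaged in selection buffer, then after 15 min with 500 uM ATP at 22 °C, and this buffer/ATP cycle ran five times with NaOH stripping and re-annealing between runs. Per-cluster fluorescence ratios, summed target-cycle over summed buffer-cycle Cy3 intensity, were averaged per switch-domain sequence. Clusters outside 100-1000 RFU were excluded.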

Sequences with one replicate were seen in a single cluster, so their values are uncertain.
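Further: ATP exposure 15 min at 22 °C before imaging.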

Consider GTATTACTTG, for which the switch fluorescence ratio was determined as 0.985. Next, AGTTGGCATT: 1.03; ACTACCTAAT: 1.02.

With CGAGGGTGGG, the switch fluorescence ratio was found to be 1.01. For TTAGACATAG the value was 1.06; for GACGGGCTCA, 1.01. For GACATCCTGG the value was 0.979. For AGACGTCAAT the value was 1.32; for TAGTAGTTCA, 0.925; for GGCCCATTTT, 0.98. In the case of TTCGATACAT, the switch fluorescence ratio amounted to 1.04. As for ACTATGGTTC, the switch fluorescence ratio turned out to be 0.961. Next, TGTTCACGGA: 1.01; CGGGGAGCT: 0.972.

CGGAAGTTTT: the switch fluorescence ratio was 1.01. As for GTAAACGCTG, the switch fluorescence ratio came to 0.924. Turning to CAACCGCCGA, the switch fluorescence ratio amounted to 1.39. Next, GCATCCCAAT: 1.87; ATGCCCAACC: 1.03.

Take TGGGCAAGGG: the switch fluorescence ratio is 0.978. Next, CGCTTTTAGT: 1; AGACCCACGC: 1.47; GATTAAACGT: 1.1. Turning to TAGCTTGCTA, the switch fluorescence ratio was determined as 0.965.

Take TATTTATGT: the switch fluorescence ratio worked out at 1. Next, AAGTGAGGGC: 1.03; AGATTTCTAT: 1.02; AAGAGGGAT: 0.969. Consider ATGCCGCACG, for which the switch fluorescence ratio is 1.05.

As for CTGGACAAGC, the switch fluorescence ratio turned out to be 1.15.

ATACGCTATG: the switch fluorescence ratio stood at 1.18. For AACAGGTGTA the value was 1.63; for TGTTAGTGAT, 1.01; for AGCCAGCCAA, 1.06.

For the sequence TTGCAAGTA, the switch fluorescence ratio amounted to 0.989. Next, CGCGCATTGT: 1.15; ATACCAATGG: 1.01.

Regarding AGCATGGGCT, the switch fluorescence ratio is 1. Consider TTTGGCATTT, for which the switch fluorescence ratio amounted to 0.95.

As for ACGTTTTACG, the switch fluorescence ratio was found to be 1.01. Next, AAGATCCAGG: 1.09; TTGGGACTAG: 0.993. Consider GGAATAGAGG, for which the switch fluorescence ratio came out at 0.965. Next, TCGGTTCAAT: 0.986; GTAAAGTGTG: 1.05; TACTCCGCCG: 1.55.

For TGCTCATTGA, the switch fluorescence ratio came to 0.983.

Regarding CAGCAACGG, the switch fluorescence ratio was 1.02.

For the sequence TGTAAAGACA, the switch fluorescence ratio was found to be 1.04. Consider GCGATCGTCG, for which the switch fluorescence ratio turned out to be 0.96. Turning to GCACTAAGCT, the switch fluorescence ratio came to 1.04. Next, GCCTCGATAG: 1.03; TAAAGCCTAT: 1.02. Next, CAAACACATT: 1. As to CTCATAGACG, the switch fluorescence ratio turned out to be 0.988. Regarding GAATGCTTCT, the switch fluorescence ratio worked out at 0.997.

As to GAAGCTCTGT, the switch fluorescence ratio worked out at 1.04. For TGTTGAATGG the value was 0.966; for TACAGGACGC, 1.19.

Regarding TTAATCAGGG, the switch fluorescence ratio stood at 0.973. Next, ACACTAATGA: 1.04; GGAGAGGCCA: 1.07. For ATAATCAGTG the value was 0.936; for GTGAGAAGAT, 0.966; for ATTTTCAAGT, 0.973. On to TCTGAAGAGG, for which the switch fluorescence ratio is 1.02.

Take GATTTAAAAG: the switch fluorescence ratio worked out at 0.994.
